Laboratory results as given in PubChem BioAssay (NCATS).
Values joined by “and” are separate entries in the source; they are usually repeats but may differ in a detail not shown here. Equal entries are not always repeated. The inconclusive results got no clear call from the source; some entries with a clear call stand among them for comparison. Where the call is inconclusive, the potency comes from a doubtful curve fit. Active and inactive are the calls of the source. The call rests on the fitted dose curve; in most records, active means well fitted curve in the direction sought with a large enough effect; inconclusive means small, poorly fitted or top-dose-only effect, or another doubt; inactive means no such curve, though single readings can be large; an effect the other way counts as inactive or inconclusive.

Legend:
[1] = qHTS for Inhibitors of Plasmodium falciparum (DD2) proliferation (AID 504314);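 on activity, negative = inhibition: parasite DNA measured by SYBR Green fluorescence after red cell lysis; plate controls were DMSO vehicle for no effect and artemisinin wells for full effect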; conditions: P. falciparum Dd2 in erythrocytes, SYBR Green growth, 72 h; activity, negative = inhibition: at 6.11 µM (top of the series)
Method in brief: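 P. falciparum Dd2 is grown in erythrocytes with test compound for 72 h at 37C under 5% CO2. Growth is scored by SYBR Green I fluorescence after detergent lysis, relative to artemisinin (0.29 uM) and DMSO controls.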

[2] = qHTS for Inhibitors of Plasmodium falciparum (7G8) proliferation (AID 504316); further: nearly all actives have a fitted effect of over 65% in size;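 on activity change, negative = inhibition: 0% = DMSO vehicle and -100% = 0.29 µM artemisinin full kill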; conditions: P. falciparum 7G8 in erythrocytes, SYBR Green DNA, 72 h; activity change, negative = inhibition: at 6.7 µM (top of the series)
Method in brief: (§1)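 Parasite growth measured as SYBR Green DNA fluorescence (ex 485, em 535 nm) after overnight lysis following 72 h culture at 37 °C, 0.3% parasitemia, 2.5% hematocrit. Values normalized against DMSO and 0.29 uM artemisinin controls, with plate-stack correction.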

[3] = qHTS for Inhibitors of Plasmodium falciparum (HB3) proliferation (AID 504318); further: nearly all actives have a fitted effect of over 60% in size;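 on activity change, negative = inhibition: 0% = DMSO vehicle and -100% = artemisinin control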; conditions: P. falciparum HB3 in erythrocytes, SYBR Green DNA, 72 h; activity change, negative = inhibition: at 7.21 µM (top of the series)
Method in brief: as §1

[4] = qHTS for Inhibitors of Plasmodium falciparum (CP250) proliferation (AID 504320);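 on activity change, negative = inhibition: plate controls were DMSO vehicle for no effect and 0.29 µM artemisinin control for full effect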
Method in brief: as §1
Potency means the concentration at half of the fitted maximal effect; tags describe the fitted curve by direction and shape.

## COc1cccc([C@@H]2Oc3ccc(OC)cc3C(=O)[C@@H]2OC(=O)Nc2cc(OC)c(OC)c(OC)c2)c1
[1]
  Potency: inconclusive: 0.0095 µM [inhibitor, full curve, poor fit]
[2]
  Potency: inconclusive: 2.13 µM [inhibitor, partial curve, poor fit]
[3]
  Potency: inactive

## Cc1cc2c(nc1C)CCCCN2C[C@H](C)ON=C1[C@H]2CCn3c(=O)n(-c4ccccc4)c(=O)n3[C@@H]2[C@H](O)[C@@H]2O[C@H]12
[1]
  Potency: inconclusive: 3.36 µM [inhibitor, single point]
[2]
  Potency: inconclusive: 1.69 µM [inhibitor, partial curve, poor fit]
[3]
  Potency: inconclusive: 2.82 µM [inhibitor, single point]

## CCc1cc2c(nc1CC)CCN(CCC(C)=NOC[C@@H](O)[C@H]1O[C@@H]3OC(C)(C)O[C@H]3[C@@H]1O)C2
[1]
  Potency: inconclusive: 1.5 µM [inhibitor, partial curve, poor fit]
[2]
  Potency: active: 1.69 µM
[3]
  Potency: active: 2.94 µM

## COC(=O)C1=C(C(=O)OC)[C@@H]2Nc3ccccc3[C@@]23C[C@@H](C(=O)OC)N(C(=O)c2cccs2)C3=N1
[1]
  Potency: inconclusive: 0.147 µM [inhibitor, partial curve, poor fit]
[2]
  Potency: inactive
[3]
  Potency: inconclusive: 2.13 µM [inhibitor, partial curve]

## COC(=O)N[C@H](c1ccccc1)C(C(=O)OC)C(=O)OC
[1]
  Potency: inconclusive: 4.24 µM [inhibitor, single point]
[2]
  Potency: active: 1.9 µM
[3]
  Potency: active: 1.9 µM

## CCCCc1nc2c(c3c1C[C@H](C)OC3)CN(S(=O)(=O)c1ccccc1C(=O)OC)CC2
[1]
  Potency: inconclusive: 1.69 µM [inhibitor, partial curve] and inconclusive: 1.04 µM [inhibitor, partial curve, poor fit]
[2]
  Potency: inconclusive: 1.9 µM [inhibitor, partial curve] and inactive
[3]
  Potency: inconclusive: 2.94 µM [inhibitor, single point] and inconclusive: 1.51 µM [inhibitor, partial curve, poor fit]

## C=CC1=C2C=C(C3CC3)N(CCCOC(C)C)C=C2C(=O)C(C)(OC(=O)c2ccco2)C1=O (stereo not given)
[1]
  Potency: inconclusive: 2.38 µM [inhibitor, single point]
[2]
  Potency: inconclusive: 1.9 µM [inhibitor, single point]
[3]
  Potency: inconclusive: 1.69 µM [inhibitor, partial curve] and inconclusive: 4.26 µM [inhibitor, single point]

## COC(=O)C1=C(C(=O)OC)[C@@H]2N(Cc3ccccc3)c3ccccc3[C@@]23C[C@@H](C(=O)OC)N(C(=O)NCc2ccccc2)C3=C1
[1]
  Potency: inconclusive: 1.34 µM [inhibitor, partial curve]
[2]
  Potency: inconclusive: 1.9 µM [inhibitor, single point]
[3]
  Potency: inconclusive: 2.13 µM [inhibitor, single point]

## C[C@H]1Cc2c(COc3ccccc3)nc3c(c2CO1)CN(S(=O)(=O)c1ccc2c(c1)OCCN2C)CC3
[1]
  Potency: inconclusive: 1.69 µM [inhibitor, partial curve, poor fit]
[2]
  Potency: inconclusive: 1.69 µM [inhibitor, single point]
[3]
  Potency: inconclusive: 2.69 µM [inhibitor, single point] and inconclusive: 4.26 µM [inhibitor, single point]

## CCN1C(=O)[C@@H]2[C@H]3[C@H](O)[C@H](O)CC(=NOC[C@H]4O[C@H](c5ccccc5)C=C[C@H]4Oc4ccc(OC)cc4)[C@@H]3CC[C@H]2C1=O
[1]
  Potency: inactive
[2]
  Potency: inconclusive: 1.9 µM [inhibitor, partial curve]
[3]
  Potency: inconclusive: 2.94 µM [inhibitor, partial curve]

## C[C@H]1Cc2c(COc3ccccc3)nc3c(c2CO1)CN(C(=O)Cc1cccs1)CC3
[1]
  activity, negative = inhibition: inactive: 3.57% [at 1.12 µM]
[2]
  Potency: inconclusive: 1.69 µM [inhibitor, partial curve, poor fit]
[3]
  Potency: inconclusive: 1.69 µM [inhibitor, single point]

## CC(CCN1CCCc2nc(C)c(C)cc21)=NOC[C@@H](O)COCc1ccco1
[1]
  Potency: inconclusive: 4.24 µM [inhibitor, single point]
[2]
  Potency: inconclusive: 1.51 µM [inhibitor, partial curve]
[3]
  Potency: inconclusive: 1.51 µM [inhibitor, partial curve]

## CCCNC(=O)OC[C@H]1O[C@H](CCON=C2c3cc(OC)ccc3O[C@H](c3cccc(OC)c3)[C@H]2O)C=C[C@H]1Oc1ccc(OC)cc1
[1]
  Potency: inactive
[2]
  Potency: active: 1.69 µM
[3]
  Potency: inconclusive: 3.98 µM [inhibitor, partial curve, poor fit]

## CCOC(=O)N1C2=NC(C(=O)OC)=C(C(=O)OC)[C@@H]3N(Cc4ccccc4)c4ccccc4[C@]23C[C@H]1C(=O)OC
[1]
  Potency: inconclusive: 1.34 µM [inhibitor, single point]
[2]
  Potency: inconclusive: 1.51 µM [inhibitor, partial curve] and inconclusive: 4.26 µM [inhibitor, single point]
[3]
  Potency: inconclusive: 0.465 µM [inhibitor, partial curve]

## CC#CCN1c2ccccc2[C@]23C[C@@H](C(=O)OC)N(S(=O)(=O)c4ccc([N+](=O)[O-])cc4)C2=NC(C(=O)OC)=C(C(=O)OC)[C@H]13
[1]
  activity, negative = inhibition: inactive: -0.829% [at 1.12 µM]
[2]
  Potency: inconclusive: 1.69 µM [inhibitor, single point]
[3]
  Potency: inconclusive: 2.13 µM [inhibitor, single point]

## CCC=C1C(=O)[C@]2(C(=O)c3ccccc3)C[C@H]3CCC(CCC)(C2=O)[C@@]13OC
[1]
  Potency: inactive
[2]
  Potency: inconclusive: 0.675 µM [inhibitor, partial curve]
[3]
  Potency: inconclusive: 1.69 µM [inhibitor, single point]

## C#CCN1C(=O)[C@]2(OCCC=C[C@H]2C)c2c(Br)cccc21
[1]
  Potency: inconclusive: 1.89 µM [inhibitor, single point]
[2]
  Potency: inconclusive: 1.9 µM [inhibitor, single point]
[3]
  Potency: inconclusive: 2.39 µM [inhibitor, partial curve, poor fit]
[4]
  Potency: inactive

## COc1cccc([C@@H]2NC(=O)CC=C[C@H](C)[C@H](c3cccc(OC)c3)NC(=O)CC=C[C@H]2C)c1
[1]
  Potency: inconclusive: 1.69 µM [inhibitor, single point]
[2]
  Potency: inconclusive: 0.478 µM [inhibitor, single point]
[3]
  Potency: inconclusive: 1.51 µM [inhibitor, single point]

## C#CCN1C(=O)CC[C@@]23C1=NC(C(=O)OC)=C(C(=O)OC)[C@@H]2N(CC=C(C)C)c1ccccc13
[1]
  Potency: inconclusive: 4.75 µM [inhibitor, partial curve, poor fit]
[2]
  Potency: inconclusive: 2.13 µM [inhibitor, single point] and inconclusive: 2.69 µM [inhibitor, partial curve]
[3]
  Potency: inconclusive: 1.51 µM [inhibitor, single point]

## CCN1C(=NCCc2c[nH]c3ccccc23)NC(c2ccccc2)C(C(=O)OC)=C1C (stereo not given)
[1]
  Potency: inconclusive: 1.5 µM [inhibitor, partial curve, poor fit]
[2]
  Potency: inconclusive: 0.301 µM [inhibitor, partial curve, poor fit]
[3]
  Potency: inconclusive: 0.601 µM [inhibitor, partial curve, poor fit]
[4]
  Potency: inconclusive: 4.26 µM [inhibitor, partial curve, poor fit]

## C[C@H]1Cc2c(-c3ccccc3)nc3c(c2CO1)CN(S(=O)(=O)c1ccc2c(c1)OCCN2C)CC3
[1]
  Potency: inconclusive: 1.5 µM [inhibitor, partial curve]
[2]
  Potency: inconclusive: 1.51 µM [inhibitor, partial curve, poor fit]
[3]
  Potency: inconclusive: 3.7 µM [inhibitor, single point] and inconclusive: 3.01 µM [inhibitor, single point]

## COC(=O)C1=C(C(=O)OC)[C@@H]2N(C)c3ccccc3[C@@]23C[C@@H](C(=O)OC)N(S(=O)(=O)c2cccs2)C3=N1
[1]
  activity, negative = inhibition: inactive: 4.69% [at 1.12 µM]
[2]
  Potency: inconclusive: 1.69 µM [inhibitor, partial curve, poor fit]
[3]
  Potency: inconclusive: 4.26 µM [inhibitor, single point]

## COC(=O)C(c1ccc(OC)c(OC)c1)C1c2ccccc2C=C(C)N1C(=O)OC (stereo not given)
[1]
  Potency: inactive
[2]
  Potency: inactive
[3]
  Potency: inconclusive: 1.69 µM [inhibitor, single point]

## CCC(=O)C[C@@H](NC(=O)OC)c1ccc(F)cc1
[1]
  Potency: inactive
[2]
  Potency: inconclusive: 0.0027 µM [activator, full curve, poor fit]
[3]
  Potency: inactive

## COC(=O)[C@@H]1CC23C(=NC(c4ccc([N+](=O)[O-])cc4)=C(C(F)(F)F)[C@@H]2N(C)c2ccccc23)N1C(C)=O (stereo not given in full)
[1]
  Potency: inconclusive: 2.12 µM [inhibitor, single point]
[2]
  Potency: inconclusive: 1.9 µM [inhibitor, single point]
[3]
  Potency: inconclusive: 1.51 µM [inhibitor, partial curve]

## CC1=C[C@@H](COCc2ccccc2)O[C@@]2(C1)C(=O)Nc1cccc(Br)c12
[1]
  Potency: inconclusive: 1.5 µM [inhibitor, partial curve, poor fit] and inconclusive: 4.24 µM [inhibitor, partial curve, poor fit]
[2]
  Potency: inconclusive: 1.35 µM [inhibitor, partial curve, poor fit] and inconclusive: 3.01 µM [inhibitor, partial curve, poor fit]
[3]
  Potency: inconclusive: 3 nM [inhibitor, full curve] and inconclusive: 3.01 µM [inhibitor, partial curve, poor fit]
